These molecules were tested against Recombinant heterodimeric HCV NS3/NS4A protease (strain 1a) (Hepatitis C virus genotype 1a, UniProt P27958) (assay: HCV continuous assay (spectrophotometric HCV NS3/NS4A serine protease inhibition assay)). Conditions: Table 1; ranges of Ki* values in HCV continuous assay.
Format: biochemical, HCV (strain 1a)

SMILES	Ki [nM]
C#CCCC(NC(=O)[C@@H]1[C@@H]2[C@H](CN1C(=O)[C@@H](NC(=O)N[C@H](CN1Cc3ccccc3S1(=O)=O)C1CCCCC1)C(C)(C)C)C2(C)C)C(=O)C(=O)NCC=C (some centres unmarked) [Compound 5221]	≤ 50
CCCC(NC(=O)[C@@H]1[C@@H]2[C@H](CN1C(=O)[C@@H](NC(=O)N[C@H](CN1CCCS1(=O)=O)C(C)(C)C)C1CCCCC1)C2(C)C)C(=O)C(=O)NC (some centres unmarked) [Compound 5136]	≤ 50
C=CCNC(=O)C(=O)C(CC1CCC1)NC(=O)[C@@H]1[C@@H]2[C@H](CN1C(=O)[C@@H](NC(=O)N[C@H](CN1Cc3sccc3S1(=O)=O)C(C)(C)C)C(C)(C)C)C2(C)C (some centres unmarked) [Compound 5262]	≤ 50
C=CCNC(=O)C(=O)C(CC1CCC1)NC(=O)[C@@H]1[C@@H]2[C@H](CN1C(=O)[C@@H](NC(=O)N[C@H](CN1CCCN(C)S1(=O)=O)C(C)(C)C)C1CCCCC1)C2(C)C (some centres unmarked) [Compound 5239]	≤ 50
C=CCNC(=O)C(=O)C(CC1CC1)NC(=O)[C@@H]1[C@@H]2[C@H](CN1C(=O)[C@@H](NC(=O)N[C@H](CN1Cc3sccc3S1(=O)=O)C(C)(C)C)C(C)(C)C)C2(C)C (some centres unmarked) [Compound 5153]	≤ 50
C=CCNC(=O)C(=O)C(CC1CC1)NC(=O)[C@@H]1[C@@H]2[C@H](CN1C(=O)[C@@H](NC(=O)N[C@H](CN1CCCCS1(=O)=O)C(C)(C)C)C1CCCCC1)C2(C)C (some centres unmarked) [Compound 5176]	≤ 50
CC(C)(C)[C@@H](CN1CCCS1(=O)=O)NC(=O)N[C@H](C(=O)N1C[C@H]2[C@@H]([C@H]1C(=O)NC(CC1CC1)C(=O)C(N)=O)C2(C)C)C1CCCCC1 (some centres unmarked) [Compound 5140]	≤ 50
CC(C)(C)[C@@H](CN1Cc2sccc2S1(=O)=O)NC(=O)N[C@H](C(=O)N1C[C@H]2[C@@H]([C@H]1C(=O)NC(CC1CC1)C(=O)C(N)=O)C2(C)C)C1CCCCC1 (some centres unmarked) [Compound 5185]	≤ 50
C=CCNC(=O)C(=O)C(CCC)NC(=O)[C@@H]1[C@@H]2[C@H](CN1C(=O)[C@@H](NC(=O)N[C@H](CN1Cc3sccc3S1(=O)=O)C(C)(C)C)C1(C)CCCCC1)C2(C)C (some centres unmarked) [Compound 5255]	≤ 50
CC(C)(C)[C@H](NC(=O)NC1(CN2Cc3sccc3S2(=O)=O)CCCCC1)C(=O)N1C[C@H]2[C@@H]([C@H]1C(=O)NC(CC1CC1)C(=O)C(N)=O)C2(C)C (some centres unmarked) [Compound 5211]	≤ 50
CC(C)(C)[C@@H](CN1CCCS1(=O)=O)NC(=O)N[C@H](C(=O)N1C[C@H]2[C@@H]([C@H]1C(=O)NC(CC1CCC1)C(=O)C(N)=O)C2(C)C)C1CCCCC1 (some centres unmarked) [Compound 5138]	≤ 50
C=CCNC(=O)C(=O)C(CCC)NC(=O)[C@@H]1[C@@H]2[C@H](CN1C(=O)[C@@H](NC(=O)N[C@H](CN1CCCN(C)S1(=O)=O)C(C)(C)C)C1CCCCC1)C2(C)C (some centres unmarked) [Compound 5241]	≤ 50
C=CCNC(=O)C(=O)C(CC1CC1)NC(=O)[C@@H]1[C@@H]2[C@H](CN1C(=O)[C@@H](NC(=O)NC1(CN3Cc4sccc4S3(=O)=O)CCCCC1)C(C)(C)C)C2(C)C (some centres unmarked) [Compound 5207]	> 50
C=CCNC(=O)C(=O)C(CCC)NC(=O)[C@@H]1[C@@H]2[C@H](CN1C(=O)[C@@H](NC(=O)N[C@H](CN1Cc3ccccc3S1(=O)=O)C1CCCCC1)C(C)(C)C)C2(C)C (some centres unmarked) [Compound 5223]	≤ 50
C#CCCC(NC(=O)[C@@H]1[C@@H]2[C@H](CN1C(=O)[C@@H](NC(=O)N[C@H](CN1Cc3sccc3S1(=O)=O)C(C)(C)C)C(C)(C)C)C2(C)C)C(=O)C(=O)NCC=C (some centres unmarked) [Compound 5169]	≤ 50
CC(C)(C)[C@@H](CN1Cc2sccc2S1(=O)=O)NC(=O)N[C@H](C(=O)N1C[C@H]2[C@@H]([C@H]1C(=O)NC(CC1CCC1)C(=O)C(N)=O)C2(C)C)C1CCCCC1 (some centres unmarked) [Compound 5184]	≤ 50
C=CCNC(=O)C(=O)C(CCC(F)(F)F)NC(=O)[C@@H]1[C@@H]2[C@H](CN1C(=O)[C@@H](NC(=O)N[C@H](CN1CCN(C)S1(=O)=O)C(C)(C)C)C(C)(C)C)C2(C)C (some centres unmarked) [Compound 5157]	≤ 50
C=CCNC(=O)C(=O)C(CC1CCC1)NC(=O)[C@@H]1[C@@H]2[C@H](CN1C(=O)[C@@H](NC(=O)N[C@H](CN1CCCS1(=O)=O)C(C)(C)C)C(C)(C)C)C2(C)C (some centres unmarked) [Compound 5144]	≤ 50
CC(C)(C)[C@H](NC(=O)N[C@H](CN1CCCCS1(=O)=O)C(C)(C)C)C(=O)N1C[C@H]2[C@@H]([C@H]1C(=O)NC(CC1CCC1)C(=O)C(N)=O)C2(C)C (some centres unmarked) [Compound 5193]	≤ 50
CC(=O)N1CCN(C[C@@H](NC(=O)N[C@H](C(=O)N2C[C@H]3[C@@H]([C@H]2C(=O)NC(CC2CCC2)C(=O)C(N)=O)C3(C)C)C(C)(C)C)C(C)(C)C)S1(=O)=O (some centres unmarked) [Compound 5203]	≤ 50
C#CCCC(NC(=O)[C@@H]1[C@@H]2[C@H](CN1C(=O)[C@@H](NC(=O)N[C@H](CN1CCN(C)S1(=O)=O)C(C)(C)C)C(C)(C)C)C2(C)C)C(=O)C(=O)NCC=C (some centres unmarked) [Compound 5155]	≤ 50

Same assay, conditions: Table 2; ranges of Ki* values in HCV continuous assay

SMILES	Ki [nM]
CNC(=O)C(=O)C(CC1CC1)NC(=O)[C@@H]1[C@@H]2[C@H](CN1C(=O)[C@@H](NC(=O)N[C@H](CN1C(=O)CCC1=O)C(C)(C)C)C(C)(C)C)C2(C)C (some centres unmarked) [Compound 5640]	≤ 50
CC(C)(C)[C@H](NC(=O)N[C@H](CN1C(=O)c2cc[n+]([O-])cc2C1=O)C(C)(C)C)C(=O)N1C[C@H]2[C@@H]([C@H]1C(=O)NC(CC1CCC1)C(=O)C(N)=O)C2(C)C (some centres unmarked) [Compound 5774]	≤ 50
C=CCNC(=O)C(=O)C(CCCC)NC(=O)[C@@H]1[C@@H]2[C@H](CN1C(=O)[C@@H](NC(=O)N[C@H](CN1C(=O)c3ccccc3C1=O)C(C)(C)C)C(C)(C)C)C2(Cl)Cl (some centres unmarked) [Compound 5760]	≤ 50
C=CCNC(=O)C(=O)C(CC1CC1)NC(=O)[C@@H]1[C@@H]2[C@H](CN1C(=O)[C@@H](NC(=O)N[C@H](CN1C(=O)CC3(CCCC3)CC1=O)C(C)(C)C)C1CCCCC1)C2(C)C (some centres unmarked) [Compound 5797]	≤ 50
CC(C)(C)[C@H](NC(=O)N[C@H](CN1Cc2ccccc2C1=O)C(C)(C)C)C(=O)N1C[C@H]2[C@@H]([C@H]1C(=O)NC(CC1CC1)C(=O)C(N)=O)C2(C)C (some centres unmarked) [Compound 5745]	≤ 50
CC(C)(C)[C@H](NC(=O)N[C@H](CN1CCOC1=O)C(C)(C)C)C(=O)N1C[C@H]2[C@@H]([C@H]1C(=O)NC(CC1CCC1)C(=O)C(N)=O)C2(C)C (some centres unmarked) [Compound 5628]	≤ 50
C=CCNC(=O)C(=O)C(CCCC)NC(=O)[C@@H]1[C@@H]2[C@H](CN1C(=O)[C@@H](NC(=O)N[C@H](CN1C(=O)CC3(CCCC3)CC1=O)C(C)(C)C)C1CCCCC1)C2(C)C (some centres unmarked) [Compound 5810]	≤ 50
C=CCNC(=O)C(=O)C(CCC(F)(F)F)NC(=O)[C@@H]1[C@@H]2[C@H](CN1C(=O)[C@@H](NC(=O)N[C@H](CN1Cc3ccccc3C1=O)C(C)(C)C)C1CCCCC1)C2(C)C (some centres unmarked) [Compound 5763]	≤ 50
C=CCNC(=O)C(=O)C(CCC(F)(F)F)NC(=O)[C@@H]1[C@@H]2[C@H](CN1C(=O)[C@@H](NC(=O)N[C@H](CN1CCCCC1=O)C(C)(C)C)C1CCCCC1)C2(C)C (some centres unmarked) [Compound 5720]	≤ 50
C=CCNC(=O)C(=O)C(CCC)NC(=O)[C@@H]1[C@@H]2[C@H](CN1C(=O)[C@@H](NC(=O)N[C@H](CN1CCCNC1=O)C(C)(C)C)C(C)(C)C)C2(C)C (some centres unmarked) [Compound 5664]	≤ 50
CC(C)(C)[C@H](NC(=O)N[C@H](CN1C(=O)CCC1=O)C(C)(C)C)C(=O)N1C[C@H]2[C@@H]([C@H]1C(=O)NC(CC1CC1)C(=O)C(N)=O)C2(C)C (some centres unmarked) [Compound 5638]	≤ 50
C=CCNC(=O)C(=O)C(CCCC)NC(=O)[C@@H]1[C@@H]2[C@H](CN1C(=O)[C@@H](NC(=O)N[C@H](CN1C(=O)CC(C)(C)CC1=O)C(C)(C)C)C1CCCCC1)C2(C)C (some centres unmarked) [Compound 5777]	≤ 50
C=CCNC(=O)C(=O)C(CCC)NC(=O)[C@@H]1[C@@H]2[C@H](CN1C(=O)[C@@H](NC(=O)N[C@H](CN1C(=O)c3ccccc3C1=O)C(C)(C)C)C(C)(C)C)C2(C)C (some centres unmarked) [Compound 5619]	≤ 50
C#CCCC(NC(=O)[C@@H]1[C@@H]2[C@H](CN1C(=O)[C@@H](NC(=O)N[C@H](CN1CCCNC1=O)C(C)(C)C)C1Cc3ccccc3C1)C2(C)C)C(=O)C(=O)NCC=C (some centres unmarked) [Compound 5726]	≤ 50
C=CCNC(=O)C(=O)C(CC1CC1)NC(=O)[C@@H]1[C@@H]2[C@H](CN1C(=O)[C@@H](NC(=O)N[C@H](CN1C(=O)c3ccccc3C1=O)C(C)(C)C)C(C)(C)C)C2(C)C (some centres unmarked) [Compound 5634]	≤ 50
CCCCC(NC(=O)[C@@H]1[C@@H]2[C@H](CN1C(=O)[C@@H](NC(=O)N[C@H](CN1Cc3ccccc3C1=O)C(C)(C)C)C(C)(C)C)C2(C)C)C(=O)C(=O)NCC (some centres unmarked) [Compound 5746]	> 50
CC(C)[C@@H](CN1CCCCC1=O)NC(=O)N[C@H](C(=O)N1C[C@H]2[C@@H]([C@H]1C(=O)NC(CC1CCC1)C(=O)C(N)=O)C2(C)C)C(C)(C)C (mixture of isomers) [Compound 5632]	≤ 50
C=CCNC(=O)C(=O)C(CCCC)NC(=O)[C@@H]1[C@@H]2[C@H](CN1C(=O)[C@@H](NC(=O)N[C@H](CN1CCCCC1=O)C(C)(C)C)C(C)(C)C)C2(C)C (some centres unmarked) [Compound 5652]	≤ 50
C=CCNC(=O)C(=O)C(CC1CCC1)NC(=O)[C@@H]1[C@@H]2[C@H](CN1C(=O)[C@@H](NC(=O)N[C@H](CN1CCCCC1=O)C(C)C)C(C)(C)C)C2(C)C (some centres unmarked) [Compound 5614]	≤ 50
CCCC(NC(=O)[C@@H]1[C@@H]2[C@H](CN1C(=O)[C@@H](NC(=O)N[C@H](CN1Cc3ccccc3C1=O)C(C)(C)C)C1CCCCC1)C2(C)C)C(=O)C(=O)NC1CC1 (some centres unmarked) [Compound 5766]	≤ 50
C=CCNC(=O)C(=O)C(CCCC)NC(=O)[C@@H]1[C@@H]2[C@H](CN1C(=O)[C@@H](NC(=O)N[C@H](Cn1ccccc1=O)C(C)C)C(C)(C)C)C2(C)C (some centres unmarked) [Compound 5610]	≤ 50
CCCCC(NC(=O)[C@@H]1[C@@H]2[C@H](CN1C(=O)[C@@H](NC(=O)N[C@H](CN1C(=O)CC(C)(C)CC1=O)C(C)(C)C)C1CCCCC1)C2(C)C)C(=O)C(=O)NCCC (some centres unmarked) [Compound 5808]	≤ 50
C=CCNC(=O)C(=O)C(CC1CC1)NC(=O)[C@@H]1[C@@H]2[C@H](CN1C(=O)[C@@H](NC(=O)N[C@H](CN1C(=O)CC(C)(C)CC1=O)C(C)(C)C)C1CCCCC1)C2(C)C (some centres unmarked) [Compound 5775]	≤ 50

Same assay, conditions: Table 4; Ki* values

SMILES	Ki [nM]
C=CCNC(=O)C(=O)C(CCC)NC(=O)[C@@H]1[C@@H]2[C@H](CN1C(=O)[C@@H](NC(=O)N[C@H](CN1C(=O)c3ccccc3C1=O)C(C)(C)C)C(C)(C)C)C2(C)C (some centres unmarked) [Compound 5619]	11
C=CCNC(=O)C(=O)C(CCCC)NC(=O)[C@@H]1[C@@H]2[C@H](CN1C(=O)[C@@H](NC(=O)N[C@H](CN1CCCCC1=O)C(C)(C)C)C(C)(C)C)C2(C)C (some centres unmarked) [Compound 5652]	19
C=CCNC(=O)C(=O)C(CC1CC1)NC(=O)[C@@H]1[C@@H]2[C@H](CN1C(=O)[C@@H](NC(=O)N[C@H](CN1C(=O)CC(C)(C)CC1=O)C(C)(C)C)C1CCCCC1)C2(C)C (some centres unmarked) [Compound 5775]	5

From US7619094B2, “Ketoamides with cyclic P4's as inhibitors of NS3 serine protease of hepatitis C virus” (Schering Corporation, priority 2004, dated 2009)
